Assay results reported in PubChem BioAssay AID686978 (National Center for Advancing Translational Sciences (NCATS), 2013).
Among all 420,000 compounds or so, about 64,000 (15%) were called active. Inconclusive results, whose numbers are uncertain, are shown with a selection of clear calls. Calls come from the whole dose curve; as a rule, active = well fitted inhibition curve with a large enough effect; inconclusive = small, poorly fitted or top-dose-only effect; inactive = flat fitted curve, though single readings scatter. Potencies of inconclusive entries are left out as doubtful fits.

Test: qHTS for Inhibitors of human tyrosyl-DNA phosphodiesterase 1 (TDP1): qHTS in cells in absence of CPT; note: nearly all actives have a fitted effect of over 55% in size
Details: DT40 Tdp1-/- hTDP1 cells, no CPT, ATP luminescence, 48 h; activity change, negative = growth inhibition: at 46.2 µM (top of the series) unless noted
Method in brief: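 Readout: luminescence from CellTiter-Glo after 30 min in the dark at RT. Cells: DT40 Tdp1-/- with stable hTDP1, 400/well. Exposure: compounds alone, ≥48 hr, 37 °C.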
% is set by controls: 0 for no effect and ±100 for the full control effect; potency is the fitted concentration of half-maximal effect; tags give direction and shape of the fitted curve.

SMILES	activity change, negative = growth inhibition	Potency
Cc1cc(C)cc(NC(=S)N2CCC(NC(=O)C3CCCCC3)CC2)c1	inactive: 0.82%	–
COc1cc(/C=N\Nc2nncn2N)ccc1OC(C)=O	–	inconclusive [inhibitor, single point]
CN(C)CCCNS(=O)(=O)c1ccc(Oc2ncc(C(F)(F)F)cc2Cl)cc1	–	inconclusive [inhibitor, single point]
CCc1ccccc1NC(=O)CCN1C(=O)C2C3CCC(C3)C2C1=O (stereo unspecified)	inactive: 1.42%	–
O=C(Nc1cc2c3c(c1)C1CCCC1CN3CC1CCCC21)c1ccccc1 (stereo unspecified)	–	inconclusive [inhibitor, single point]
O=C(Cn1c(=S)[nH]c2ccccc2c1=O)N1CCc2ccccc2C1	–	inconclusive [inhibitor, single point]
Cc1ccc(OC(C)C(=O)N2CCc3ccccc32)cc1 (stereo unspecified)	inconclusive: -35.3% [inhibitor]	–
COc1ccccc1NC(=O)n1ncc2c(C)cccc21	inactive: -15.7%	–
CCSc1ccc(-c2nn(-c3ccccc3)cc2/C=C(/C#N)C(=O)NC)cc1	–	inconclusive [inhibitor, single point]
O=C(N/N=C/c1ccc(Br)s1)c1cccc([N+](=O)[O-])c1	–	inconclusive [inhibitor, full curve]
COc1ccc(C(=O)Nc2nc(OCC(F)(F)F)cnc2/C=C\c2ccccc2)c(OC)c1	–	inconclusive [inhibitor, partial curve, poor fit]
CC1CCc2nc(NC(=O)COc3ccc(C(C)(C)C)cc3)sc2C1 (stereo unspecified)	–	inconclusive [inhibitor, single point]
Cc1cc(C)cc(NC(=O)c2cc(S(=O)(=O)N3CCCC3)cn2C)c1	inactive: -11.7%	–
CCCCn1c(N)c(N(CC)C(=O)c2cccs2)c(=O)[nH]c1=O	inactive: 9.1%	–
CC(C)N(C(=O)CC1ON(C)C(=O)N1c1ccc(Cl)cc1)C(C)C (stereo unspecified)	–	inconclusive [inhibitor, partial curve, poor fit]
O=S(=O)(Nc1cccc(-c2ccc(N3CCCCC3)nn2)c1)c1cccs1	inactive: -21.7%	–
COCCNC(=O)C(c1ccco1)N(C(=O)Cn1nnc2ccccc21)c1cccc(C)c1C (stereo unspecified)	inconclusive: -32.2% [inhibitor]	–
CCCCN(CCCN)c1ccc(Br)cn1	–	inconclusive [inhibitor, single point]
CC(C)(C)NC(=O)c1ccc(COc2ccc(Cl)cc2Cl)o1	–	inconclusive [inhibitor, single point]
COc1cc(OC)cc(C(=O)N2c3ccc(F)cc3CCC2C)c1 (stereo unspecified)	–	active: 11.6 µM
N=c1oc2ccccc2cc1-c1nc(-c2ccccc2)cs1	–	active: 23.1 µM
CCn1c(/C=C/c2c(C)n(CC)c3ccccc23)nc2ccccc2c1=O	–	inconclusive [inhibitor, partial curve, poor fit]
COc1cc(OC)c(C2=NOC(C(=O)NCCc3ccccc3)C2)cc1Cl (stereo unspecified)	inactive: -14.4%	–

SMILES	activity change, negative = growth inhibition	Potency
N#CC1(NC(=O)CSc2nc3ccccc3o2)CCCCC1	–	inconclusive [inhibitor, partial curve]
CCOC(=O)c1[nH]c2ccc(OCC)cc2c1NC(=O)CN1CCN(c2ccccn2)CC1	–	active: 16.4 µM
Cc1nc(CC(=O)c2c(C)cc(O)cc2O)cs1	–	inconclusive [inhibitor, partial curve]
CCOC(=O)N1CCN(C(=O)CCn2nc(-c3ccc(Cl)cc3)ccc2=O)CC1	–	inconclusive [inhibitor, single point]
COc1ccc2c(c1)oc(=O)c1c3ccccc3[nH]c21	–	inconclusive [inhibitor, full curve]
C#CCOC(=O)Nc1cccn(Cc2c(Cl)cccc2Cl)c1=O	–	active: 10.3 µM
COc1ccc(OC)c(C2CC(=O)c3c([nH]c(C(=O)OCC4CCCCC4)c3C)C2)c1 (stereo unspecified)	–	inconclusive [inhibitor, partial curve]
COc1ccc(NC(=O)C(c2ccc(C(F)(F)F)cc2)n2c(=O)c(-c3cc4ccccc4[nH]3)nc3ccccc32)cc1 (stereo unspecified)	–	inconclusive [inhibitor, single point]
COc1cc(NS(=O)(=O)c2c(C)[nH]c(C)c2C(=O)N2CCCC2)cc(OC)c1OC	inactive: 19.4%	–
COC(=O)C1(S(=O)(=O)c2cccc3nsnc23)CC1	inconclusive: -30.8% [inhibitor]	–
Cc1ccc(NC(=O)COC(=O)[C@@H]2CCCN2C(=O)c2cccs2)cc1S(=O)(=O)N(C)C	inactive: -19.9%	–
Cc1csc2nc(COC(=O)COc3ccccc3F)cc(=O)n12	inactive: -2.29%	–
COc1ccccc1-c1nc(SCC(=O)N(C)c2ccccc2)c2c(=O)n(C)c(=O)n(C)c2n1	–	inconclusive [inhibitor, single point]
CCCC(=O)N1CC(=O)Nc2ccc(Cl)cc2C1c1ccc(F)cc1 (stereo unspecified)	–	inconclusive [inhibitor, single point]
CCOC(=O)C1(CCOC)CCN(C(=O)Cc2ccc3ccccc3c2)CC1	–	inconclusive [inhibitor, single point]
CC(=O)c1cccc(NC(=O)CCS(=O)(=O)c2cc(Br)cc3c2N(C(=O)C2CC2)CC3)c1	–	inconclusive [inhibitor, single point]
COCCN(CCOC)Cc1cc(=O)oc2cc(C)ccc12	inactive: 7.72%	–
CCOc1nc(-c2ccc(OC)cc2)ccc1-c1noc(C)n1	–	inconclusive [inhibitor, partial curve, poor fit]
CN(C)N1C(N)=C(C#N)C(c2ccsc2)C2=C1CCCC2=O (stereo unspecified)	inactive: -5.58%	–
CC(C)n1c(O)c(N=NC(=O)CNC(=O)CCc2ccccc2)c2ccccc21	–	inconclusive [inhibitor, partial curve]
Oc1ccc(N=Nc2nc(-c3ccccc3)c(-c3ccccc3)[nH]2)cc1	–	active: 23.1 µM
FC(F)(F)c1nc2ccccc2n2c(-c3ccc(Cl)cc3Cl)nnc12	–	active: 20.6 µM
Cc1ccc(C)c(S(=O)(=O)N2CCCOC2CNC(=O)C(=O)NCc2cccnc2)c1 (stereo unspecified)	inactive: -10.9%	–
